The source gives no read counts; variants with many changes may rest on few reads.
B1: LINE1-mini (parent)
chain: GGCAGAGCUCAACACAGCGUGGCAAAGUGGCUGUGGCUAGACUGCC

Variants of: B1
Experiment: self-cleavage, relative activity (ratio to wild type); higher = more cleavage; in vitro, sequencing; the parent is a self-cleaving ribozyme

Variant	self-cleavage
C3G C13G A14U C15A G19U G29A A39C	0.07
C3U A26U A41G	0.08
C3G C10G U34A	0.03
C3U A6G U9A C10U U32G	0.04
C3G U28C C31U	0.11
C3G G22U C37G C42G	0
C3U G5C C18A G22U A25U	0.06
C3G C8A G35A	1.24
C3G G21U U32C	0.02
C3G G17U C18A G30C	0.65
C3G G7C C8U U9C C23A	0.48
C3G C15G G22U G30U C31U C45A C46U	0.04
C3G C8G A11C C31A G40A	0
C3G C10U A14U G30U C46U	0.08
C3G G7U A12C C31A G44U	0.05
C3G G5U G29U C46G	0.21
C3G C10A G21C	0.04
C3U A6G A25U C31A A41G	0.07
C3G C10U A26C	0.08
C3U C42U C46A	0.05
C3U A14G U20C G22A A39U	0.18
C3U C13A G21A G36A	1.88
C3U C8U A12G C45A	0.12
C3G G7U G36A	0.84

Variant	self-cleavage
C3U A4U A26U G29A	0.13
C3U A4C G36A	0.59
C3G C18G U38G	0.05
C3G C8U A26C	0.42
C3G C10A G33A U34C	0.07
C3U C23G C42U	0.19
C3U A11C U20C U43C	0.01
C3U G5C C46A	0.03
C3G G5A A6G C10U A16C	0.01
C3G G7A A39G	0.05
C3U A14U G29U G30C	0.14
C3U C10A G17C C46U	0.02
C3G C13A U38C	0.11
C3G G7A C15U	0.22
C3U C13A C23G U34C C45U	0.17
C3U A41U U43A	0.09
C3U G5C C10A A16C G40C	0.04
C3U C23A U34G G44A	0.21
C3U A16U A24U C31G U32G	0.02
C3G C10U G21C G30U	0.05
C3U C8A A25C	0.12
C3U A4U G27A G29A C31A U32A U43A	0.04
C3G G7U C15U C18G A41U	0.07
C3G G17U U20A G22A	0.02

Variant	self-cleavage
C3G G22C A39G U43G	0.06
C3G C18A G33U C37A C46U	0.04
C3G C23A C37A A41U	0.58
C3G U9C C37U	0.02
C3G C10A A14U A25U A26U G30U G35C	0.01
C3U C18G G27U G33C	0.01
C3U A6C G29C	0.19
C3G G5U U9G	0.52
C3G C8U U9C	0.03
C3G C10A C18A C42U	0.01
C3U C10A C15G C23U U34C G35A A41C	0
C3U A12U C13U C37A C45A	0.05
C3G A41U G44U	2.24
C3G C8A A24C G27A	0.5
C3G G7C G19A G22A C46G	0.04
C3U C31A G40U	0.02
C3U C23U G35U	0.51
C3U A6U U9C C10A	0.02
C3U A26U C37A	0.18
C3U C10A C15U U28G	0.05
C3U A25C G27C	0.07
C3G G27C A41C C45A	0.03
C3G G5A C10G C18G C31A C45G	0.02
C3G C13A G21U A26U	1.56

Variant	self-cleavage
C3G G19A C23U U28A U38G	0.01
C3U A16C C42A	0.08
C3U A6C C15A A16G	0.25
C3G G7A G22U A24C G29U	0.18
C3G C15A A16U	0.2
C3U A4U G5U C10G G27C C31U	0.02
C3U A4U G19C U34C C37U U38G	0.02
C3U A14C C15G G40C C42U	0.02
C3G G5U C15U A16U U20G A39C	0.07
C3U A12C G19C A41U	0.01
C3U C8U C23U C46G	0.62
C3U C23G G35U A39G	0.06
C3G C13U U20C G29C	0.08
C3U G5A A39U C42G	0.02
C3U G5A A6G	0.2
C3U A4U G5A A11G G27C	0.05
C3U A4U U34C	0.12
C3G G29U G30A U38C U43A	0.1
C3U G5C U32G	0.1
C3G C10A G44C C45U	0.03
C3U C13U C15A	0.06
C3G U38G G40U	0.05
C3G G19A G35U	0.14
C3G G21C U32G	0.06

Variant	self-cleavage
C3G G21U A24U	0.22
C3U C10U C13G A24U G30U A41U	0.2
C3G G5U G17A	0.02
C3G C8A C15G G22U	1.2
C3G G21C A26U A39U	0.07
C3G G22A A41U	0.22
C3G U9C G19C U20C C31U	0
C3G C8G A26C C31A	0.01
C3U C8U G17U A24G C46U	0.01
C3U C8U C15A G21C G22U A26G A39C	0.03
C3G G7A U9G	0.47
C3U A6U G7U A16C G21A	0.04
C3U C10A C23A C31U	0.04
C3G G30C C37U C45U	0.08
C3G U34C G36C C46G	0.03
C3U A12U C15G C18G G21U G29A G33C C45U	0.02
C3U C10A C18A U32G U43G C46G	0.02
C3U C13U A16U G17C G29A	0.14
C3G U9G G17U U20C C23G	0.09
C3G C15A G19C C31U	0.03
C3G C8A U43G	0.22
C3G G27A A39U	0.58
C3G G27A U34A	0.11
C3G G5U G21A G27U	0.25

Variant	self-cleavage
C3U C13A A16G A25U A41G	0.02
C3U G5A U28G	0.15
C3U A4G G5A G35U G40C	0.04
C3U A4G G7U G17A U32C A39G	0.03
C3U G5A C15U G17A	0.09
C3U A16U C18G G40A	0.02
C3G C13A A24U C37G G44A	0.02
C3U A24G A26U	0.45
C3G U34C A39G	0.19
C3G C18G C45G C46G	0.06
C3U C13A U28G U34G	0.01
C3U C10U G30C U34A	0.07
C3G C18G G30A	0.04
C3G G17A C42A	0.07
C3G C13G G29U	0.24
C3U A26C A39G	0.08
C3G G7U C8A C15U	0.79
C3U C8U C37U	0.71
C3U G5A A14U U20C G29C C31G G40A	0.05
C3U C13A A26U C31A	0.08
C3G G7U G29C C31A U34C	0.06
C3U C8A G21A C23U	2.59
C3G C13A U28A G33A	0.28
C3G U20C G36U C45U	0.76

Variant	self-cleavage
C3G U38G G40U C46U	0.13
C3U A25C C31G G33C U34C	0.06
C3U A14U C15A	0.37
C3G U28G A41C C42A	0.06
C3G C8G G21U G35C	0.02
C3U A14C G21A G40U C42U	0.02
C3G C15G U28C	0.04
C3U G5A G21U U32A	0.04
C3U A6G C10A A24G A41U	0.01
C3U A11C U20A G30U	0.01
C3G C10A C42U	0.01
C3U C31A A39G A41G C42A C45A	0.04
C3U A6C C8G U28C U32C U38C	0.01
C3U A14U U38G	0.04
C3G G17A A24G G35A	0.05
C3U A12U C15G	0.04
C3U A6G G29C G30A A39G	0.07
C3G G7A U28A	0.4
C3G G17U G30A U32A C37A	0.17
C3U A11C C23G A41C	0.01
C3U C37A G40C	0.12
C3U C10A A11G A24G G33A	0.01
C3U C15G A24G	0.04
